Data: the RNAGym collection of RNA variant scans (doi:10.7554/elife.90254)
Read counts are not given, so values of variants with three or more changes are uncertain.

B1: LINE1-mini (parent)
chain: GGCAGAGCUCAACACAGCGUGGCAAAGUGGCUGUGGCUAGACUGCC

Variants of: B1
Assay: self-cleavage, relative activity (ratio to wild type); higher = more cleavage; in vitro, sequencing; the parent is a self-cleaving ribozyme

**Q.** For GGCAGGGCUCAACACAGGGCGGCAAAGUGGCUGUGGCUAGACUGCC [A6G C18G U20C], which self-cleavage is on record?
**A.** 0.03

**Q.** With GGCAGGGCUCAACACAGCGUGGAAAAGUGGGUGUGGCUAGACUGCC [A6G C23A C31G] as the variant, how does the self-cleavage read?
**A.** 0.03

**Q.** With GGCAGGGCUCAACACAGUGUGGCAAAGUGGCUGUGGCGAGACUGCC [A6G C18U U38G] as the variant, how does the self-cleavage read?
**A.** 0

**Q.** Which self-cleavage does the source give for GGCAGGCCUCAACACAGCGUGGCAUAGUGGCUGUGGCUAGACUGCC [A6G G7C A25U] here?
**A.** 0.08

**Q.** For GGCAGGGCUCAACACAUCGUGGCAAAGUGGCGGUGGCUAGACUGUC [A6G G17U U32G C45U], which self-cleavage is on record?
**A.** 0

**Q.** For GGCAGGGCUCAACACAGCGUGGGAAAGUGGCUGUGGCUAGACUGAC [A6G C23G C45A], which self-cleavage is on record?
**A.** 0.21

**Q.** With GGCAGGGCUCAACACAGCGUGGGAAACUGGCUGUGGCUUGACUGCC [A6G C23G G27C A39U] as the variant, how does the self-cleavage read?
**A.** 0.01

**Q.** For GGCAGGGCUCAACACAGCUUGGCAGAGUGGCUGUGGCUAGACUGGC [A6G G19U A25G C45G], which self-cleavage is on record?
**A.** 0.54

**Q.** For GGCAGGUAUCAACACAGCGUGGCAAAGUGACUGUGGCUUGACUGGC [A6G G7U C8A G30A A39U C45G], which self-cleavage is on record?
**A.** 0.24

**Q.** For GGCAGGCCACUACACAGCGUGGCAAAGUGGCUGUGGCUAGUCUGCC [A6G G7C U9A A11U A41U], which self-cleavage is on record?
**A.** 0.02

**Q.** With GGCAGGGCUCAACACAGCGUUGCAAAGUCGCUGUGGCUACACAGCC [A6G G21U G29C G40C U43A] as the variant, how does the self-cleavage read?
**A.** 0.01

**Q.** With GGCAGGGCUCAACACAGCGUGGCAAAGUGGCUGUUGCUAGAAUGCC [A6G G35U C42A] as the variant, how does the self-cleavage read?
**A.** 0.02

**Q.** With GGCAGGGCUCAACACAGCAUGGCAAAGUGGCUGCGGCUAGACUGCC [A6G G19A U34C] as the variant, how does the self-cleavage read?
**A.** 0.03

**Q.** With GGCAGGGCUCAACACAGCGUGGUAAAGUGGCUGUGGCUAGAUUGCC [A6G C23U C42U] as the variant, how does the self-cleavage read?
**A.** 0.21

**Q.** With GGCAGGGCUCAACACAGCGUGGCAAAGUGGCUUUGGCUAGACUCCC [A6G G33U G44C] as the variant, how does the self-cleavage read?
**A.** 0.05

**Q.** For GGCAGGGCUCAACACAACGUGGCAAAGUGGCUGUGGCUUGACUACC [A6G G17A A39U G44A], which self-cleavage is on record?
**A.** 0.04

**Q.** With GGCAGGGCUCAACACAGCGUGCCAAAGUGGCUCUGGCUAGACUGCC [A6G G22C G33C] as the variant, how does the self-cleavage read?
**A.** 0.01

**Q.** For GGCAGGGCUCAACACAGCUUGCCAAGGUGGUUGUGGCUAGACUGGC [A6G G19U G22C A26G C31U C45G], which self-cleavage is on record?
**A.** 0.03

**Q.** For GGCAGGGCUCAACACAGCGUGGCAAAGUGCCUGUGGAUAGACUGCC [A6G G30C C37A], which self-cleavage is on record?
**A.** 0.07

**Q.** With GGCAGGGCUCAACACAUCGUGGAAAAGUGGCUGUGACUAGACUGCG [A6G G17U C23A G36A C46G] as the variant, how does the self-cleavage read?
**A.** 0.27

**Q.** For GGCAGGUCUCAACACAGCGUUGCAAAGUGGCUGUGGCUAGGCUGCC [A6G G7U G21U A41G], which self-cleavage is on record?
**A.** 0.01

**Q.** Which self-cleavage does the source give for GGCAGGGCUCAACACAGCGUGUCUAAUUGGCUGUGGCUAUACUGCC [A6G G22U A24U G27U G40U] here?
**A.** 0.12

**Q.** With GGCAGGGCUCAACACAGCUUGGCAAAGUGGAUGCGGCUAGACUGCC [A6G G19U C31A U34C] as the variant, how does the self-cleavage read?
**A.** 0.01

**Q.** For GGCAGGGCUCAACACAGCCUGGCAAAGCGGCUGUGGCUUGACUGCC [A6G G19C U28C A39U], which self-cleavage is on record?
**A.** 0.01

**Q.** Which self-cleavage does the source give for GGCAGGGCUCAACACAGCGUGGCAAAGUUGCUGUAGCUAGGCUGCC [A6G G29U G35A A41G] here?
**A.** 0.07

**Q.** Which self-cleavage does the source give for GGCAGGGCUCAACACAAAGUGGCAAAGUGGCUGUGGCUAGACUCCC [A6G G17A C18A G44C] here?
**A.** 0

**Q.** With GGCAGGGCUCAACACAGCGUGGCAAAGUGGCUAUGGCUAGACUGGC [A6G G33A C45G] as the variant, how does the self-cleavage read?
**A.** 0.02

**Q.** With GGCAGGGCUCAACACAGGGUGUCAAAGUGGCUGUGUCUAGACUCCC [A6G C18G G22U G36U G44C] as the variant, how does the self-cleavage read?
**A.** 0.02

**Q.** Which self-cleavage does the source give for GGCAGGGCUCAACACAGCGUCGCUAAGUGGCUGUGGCUAGACUGCC [A6G G21C A24U] here?
**A.** 0.04

**Q.** Which self-cleavage does the source give for GGCAGGGCUCAACACAGCUUGGCAAAGUGGCUUUGGCUAGACUGCC [A6G G19U G33U] here?
**A.** 0.02

**Q.** For GGCAGGGCUCAACACAGCGUGGCAAAGUGGAUGUGGCUAGACUGCG [A6G C31A C46G], which self-cleavage is on record?
**A.** 0.01

**Q.** Which self-cleavage does the source give for GGCAGGGCUCAACACAGCGUGCCAAAGUGGUUGUGGCUAGACUGCC [A6G G22C C31U] here?
**A.** 0.01

**Q.** For GGCAGGGCUCAACACAGGGUGGCUAAGUGGCUGUGGCUAGACUGCC [A6G C18G A24U], which self-cleavage is on record?
**A.** 0

**Q.** With GGCAGGGCUCAACACAGCGUGGCAAAGUGGCUGUAGUUAGACGGCC [A6G G35A C37U U43G] as the variant, how does the self-cleavage read?
**A.** 0.09

**Q.** With GGCAGGGCUCAACACAGCCUGGCAAUGUGGCUCUGGCUAGACUGCC [A6G G19C A26U G33C] as the variant, how does the self-cleavage read?
**A.** 0.03

**Q.** Which self-cleavage does the source give for GGCAGGCUCAACACCAGCGUGGCAAAGUGGCUGUGGCGAGACUGCC [A6G G7C C8U U9C C10A A12C C13A A14C U38G] here?
**A.** 0

**Q.** Which self-cleavage does the source give for GGCAGGUCUCAACACAAAGUGGCAAAGUGGCUGUGGCUCGACUGCC [A6G G7U G17A C18A A39C] here?
**A.** 0.01

**Q.** With GGCAGGGCUCAACACAGCCUGGCAACGUGACUGUGACGAAACUGCC [A6G G19C A26C G30A G36A U38G G40A] as the variant, how does the self-cleavage read?
**A.** 0.02

**Q.** With GGCAGGGCUCAACACAGCGUAUCAAAGUGGCUGUGGCUAGACUGCC [A6G G21A G22U] as the variant, how does the self-cleavage read?
**A.** 0.09

**Q.** Which self-cleavage does the source give for GGCAGGGCUCAACACAACGCGGCAAGGUAGCUGUGGCUAGACUGCC [A6G G17A U20C A26G G29A] here?
**A.** 0.04

**Q.** For GGCAGGGCUCAACACAGAGUGGCAAAGUGGCUGUGCCUAGACUGCC [A6G C18A G36C], which self-cleavage is on record?
**A.** 0.02

**Q.** For GGCAGGGCUCAACACAGCCUGGCAAAGUGGCUGUGGCUAGGCUGCC [A6G G19C A41G], which self-cleavage is on record?
**A.** 0.08

**Q.** For GGCAGGGCUCAACACAGCGUAGCAAAGUUGCUGUGGCUCGACUACC [A6G G21A G29U A39C G44A], which self-cleavage is on record?
**A.** 0.47

**Q.** Which self-cleavage does the source give for GGCAGGCCUAAACACAGCGGGGCAAAGUGGCUGUGGCUAGACUGCC [A6G G7C C10A U20G] here?
**A.** 0

**Q.** For GGCAGGGCUCAACACAGCGUGGCAAAGUGCCUUUGGCUAGACUGCC [A6G G30C G33U], which self-cleavage is on record?
**A.** 0

**Q.** With GGCAGGGCUCAACACACCGUGGCACAGUGGCUGUGGCUAGACGGCA [A6G G17C A25C U43G C46A] as the variant, how does the self-cleavage read?
**A.** 0.01

**Q.** For GGCAGGGCUCAACACAGCGUAGCUAAGUGGCUUUGGCUAGACUGCC [A6G G21A A24U G33U], which self-cleavage is on record?
**A.** 0.08

**Q.** With GGCAGGGCACAGCCCAUCGUGGCAAAGUGGCUGUGGCUAAAUUGCC [A6G U9A A12G A14C G17U G40A C42U] as the variant, how does the self-cleavage read?
**A.** 0.06

**Q.** With GGCAGGGCUCAACACAUGGUGGCAAAGUGGCUGUGGCUAGACUGCG [A6G G17U C18G C46G] as the variant, how does the self-cleavage read?
**A.** 0.01

**Q.** Which self-cleavage does the source give for GGCAGGGCUCAACACAGCGUGGCAAAGUGCCUGUGGCUAGACUUCC [A6G G30C G44U] here?
**A.** 0.03

**Q.** Which self-cleavage does the source give for GGCAGGUCUUAACACAGCGUGGCAAAGUGGCAGUGGCUAGACUGCA [A6G G7U C10U U32A C46A] here?
**A.** 0.03

**Q.** For GGCAGGGCUCAACACAACGUGGCAAAGUGGCUGUCGCUAGACUGCA [A6G G17A G35C C46A], which self-cleavage is on record?
**A.** 0

**Q.** Which self-cleavage does the source give for GGCAGGGCUCAACACAGCGUGGCAAAGUGGCUAUGUCUAUACUGCC [A6G G33A G36U G40U] here?
**A.** 0.08

**Q.** With GGCAGGGCUCAACACAGCCUGGCAAAGUGGCUGUUGCUAGACUGCC [A6G G19C G35U] as the variant, how does the self-cleavage read?
**A.** 0.03

**Q.** Which self-cleavage does the source give for GGCAGGACACAACACAGCGUGGUAAAGUGGCUGUGGCUAGACUGCC [A6G G7A U9A C23U] here?
**A.** 0.07

**Q.** With GGCAGGGCUCAACACAGUGUGCUAAAGUGGCUGUGAUUAGACUGUG [A6G C18U G22C C23U G36A C37U C45U C46G] as the variant, how does the self-cleavage read?
**A.** 0.16
